# Several values for one entry are separate records, joined by “and”; a condition that tells them apart may be missing. Equal entries are not always repeated. Inconclusive results, whose numbers are uncertain, are shown with a selection of clear calls. For some assays here: A potency beside an inconclusive call is a rough fit, not a confirmed value. Activity calls are given as the source filed them. Unless noted, the call rests on the fitted dose curve; in most records, active means well fitted curve in the direction sought with a large enough effect in the repeat runs; inconclusive means weak or mixed curves; inactive means no such curve, though single readings can be large; an effect the other way counts as inactive or inconclusive.
# Experiments:
# [1] = molecular target: Nuclear receptor subfamily 1 group I member 3 (Homo sapiens) (UniProt Q14994); test: qHTS assay to identify small molecule antagonists of the constitutive androstane receptor (CAR) signaling pathway (AID 1224838); further: nearly all actives have a fitted effect of over 40% in size; further: potency means the concentration at half of the fitted maximal effect
# How it was run: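 HepG2 cells stably co-transfected with hCAR and a CYP2B6-2.2kb luciferase reporter were seeded 4 h before compound addition at 15 concentrations. Cells were stimulated with 50 nM CITCO (final) for 24 h at 37 C; luciferase luminescence was then read.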
# [2] = qHTS assay to identify small molecule antagonists of the estrogen related receptor signaling pathway with the pleiotropic PPARgamma coactivator (PGC) from Tox21 10K library (AID 1224841; call rule not given here; further: actives are mostly falling curves and most rising ones were filed inactive; nearly all actives have a fitted effect of over 50% in size; further: potency means the concentration at half of the fitted maximal effect)
# How it was run: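 PGC/ERR reporter cells were seeded at 2,000 cells/well and held 6 hours at 37 C/5% CO2 before pin-tool addition of compounds in DMSO. After 18 hours at 37 C, One-Glo was added and luminescence read after 30 minutes at room temperature.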
# [3] = molecular target: Thyrotropin receptor (Homo sapiens) (UniProt P16473); test: qHTS assay to identify small molecule agonists of the thyroid stimulating hormone receptor (TSHR) signaling pathway (AID 1224843; calls by dose curve; further: nearly all actives have a fitted effect of over 45% in size; further: potency means the concentration at half of the fitted maximal effect; on activation: on the % scale 0 is the no-effect control and ±100 the full control effect); details: TSHR-HEK293 cells, cAMP HTRF, agonist mode, 30 min; activation: at 92.4 µM (top of the series) unless noted
# How it was run: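 Steps: seed 800 TSHR-HEK293 cells per well; add test compound and hold 30 min at ambient temperature; dispense cAMP-d2 then anti-cAMP cryptate; incubate 1 h at ambient; measure fluorescence intensity.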
# [4] = qHTS assay to identify small molecule antagonists of the estrogen related receptor (ERR) signaling pathway from Tox21 library (AID 1224848); further: nearly all actives have a fitted effect of over 50% in size; further: potency means the concentration at half of the fitted maximal effect
# How it was run: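 Luminescent reporter read-out (ONE-Glo) from NTP's ERR cell line after 18 h treatment at 37 C with DMSO-dissolved Tox21 compounds; cells pre-plated 6 h beforehand at 2,000 per well.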
# [5] = molecular target: Nuclear receptor subfamily 1 group I member 3 (Homo sapiens) (UniProt Q14994); test: qHTS assay to identify small molecule agonists of the constitutive androstane receptor (CAR) signaling pathway (AID 1224839); further: nearly all actives have a fitted effect of over 15% in size; further: potency means the concentration at half of the fitted maximal effect;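 on activation: HepG2 cells stably carrying human CAR and a CYP2B6 luciferase reporter; on the % scale 0 is the no-effect control and ±100 the full control effect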
# How it was run: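 HepG2 cells stably expressing hCAR and a CYP2B6-2.2kb luciferase reporter were treated with compounds at 15 concentrations plus 0.75 uM PK11195 (final) for 24 h at 37 C; luminescence was read after ONE-Glo addition.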
# [6] = qHTS assay to identify small molecule antagonists of the estrogen related receptor signaling pathway with the pleiotropic PPARgamma coactivator (PGC) from Tox21 10K library - cell viability counter screen (AID 1224840; active means well fitted cell-killing curve with a large enough effect in the repeat runs, not every such curve was filed as active; inconclusive means weak or mixed curves, or effect the other way; inactive means no such curve, though single readings can be large or run the other way; further: on the % scale 0 is the no-effect control and ±100 the full control effect; nearly all actives have a fitted effect of over 40% in size)
# How it was run: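 PGC/ERR cells were seeded at 2,000 cells/well and left 6 hours at 37 C/5% CO2 before pin-tool addition of compounds in DMSO. After 17.5 hours at 37 C, CellTiter-Fluor was added and fluorescence read 30 minutes later.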
# [7] = qHTS assay to identify small molecule agonists of H2AX (AID 1224845; active means well fitted activation curve with a large enough effect in the signal ratio in the repeat runs, not every such curve was filed as active; inconclusive means weak or mixed curves; the % refers to the signal ratio; further: potency means the concentration at half of the fitted maximal effect; on activation (H2AX phosphorylation): on the % scale 0 is the no-effect control and ±100 the full control effect); details: CHO-K1 phospho-H2AX Ser139 HTRF, 3 h; activation (H2AX phosphorylation): at 154 µM (top of the series) unless noted
# How it was run: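 Wild-type CHO-K1 cells, plated overnight, exposed 3hr at 37C to 15 concentrations (0.76% DMSO final). Lysed, then HTRF anti-pH2AX (S139) cryptate and anti-H2AX-d2 antibodies, 24 hr room temperature; 665/620 nm emission read.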
# [8] = qHTS assay to identify small molecule antagonists of the constitutive androstane receptor (CAR) signaling pathway - cell viability counter screen (AID 1224837); further: on the % scale 0 is the no-effect control and ±100 the full control effect; nearly all actives have a fitted effect of over 45% in size
# How it was run: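 HepG2 cells stably expressing hCAR and a CYP2B6-2.2kb reporter were plated and pre-incubated 4 hr at 37 C/5% CO2, then given compounds at 15 concentrations plus 50 nM CITCO (final). After 23 hr, viability was read by CellTiter-Fluor fluorescence.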
# [9] = qHTS assay to identify small molecule agonists of the estrogen related receptor (ERR) signaling pathway from Tox21 library (AID 1224849; calls by dose curve; further: on the % scale 0 is the no-effect control and ±100 the full control effect; nearly all actives have a fitted effect of over 15% in size); details: ERR reporter cell line, ONE-Glo luciferase, 18 h; at 92.4 µM (top of the series) unless noted
# How it was run: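 ERR reporter cell line (NTP) seeded, rested 6 h at 37 C/5% CO2, then pinned with Tox21 compounds in DMSO. After 18 h at 37 C, ONE-Glo luciferase luminescence was read following 30 min at room temperature.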
# [10] = qHTS RealTime-Glo MT Cell Viability Assay in HEK293 cells - 32 hour (AID 1224868); further: nearly all actives have a fitted effect of over 50% in size; further: potency means the concentration at half of the fitted maximal effect
# How it was run: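 Tox21 10K qHTS, HEK293, 600 cells/well, RealTime-Glo reagent co-dispensed with cells; 5 h preincubation, compound by pintool, 37 C, luminescence at 0–40 h.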
# [11] = qHTS assay to identify small molecule agonists of the hypoxia (HIF-1) signaling pathway - cell viability counter screen (AID 1224844; calls by dose curve; further: potency means the concentration at half of the fitted maximal effect; nearly all actives have a fitted effect of over 50% in size)
# How it was run: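 HRE-bla ME-180 cells in medium with 0.5% dialyzed FBS were preincubated 5 hrs at 37C, exposed to compounds for 17 hrs, then viability was read as CellTiter-Glo luminescence after 30 min at room temperature, in the reporter wells.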
# [12] = qHTS assay to identify small molecule agonists of the hypoxia (HIF-1) signaling pathway (AID 1224846; active means well fitted activation curve with a large enough effect in the signal ratio in the repeat runs, not every such curve was filed as active; inconclusive means weak or mixed curves; the % refers to the signal ratio; further: potency means the concentration at half of the fitted maximal effect; on activation: on the % scale 0 is the no-effect control and ±100 the full control effect); details: HRE-bla ME-180 cells, beta-lactamase ratio, 17 h; activation: at 76.8 µM (top of the series) unless noted
# How it was run: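 HRE-bla ME-180 cells (beta-lactamase reporter under hypoxia response element) were plated at 2,000 cells/well in medium with 0.5% dialyzed FBS, rested 5 hrs, then given compounds in DMSO for 17 hrs at 37C, 5% CO2. Reporter induction was read with CCF4-AM FRET substrate.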
# [13] = qHTS assay to identify small molecule agonists of H2AX - cell viability counter screen (AID 1224847; calls by dose curve; further: potency means the concentration at half of the fitted maximal effect; nearly all actives have a fitted effect of over 30% in size)
# How it was run: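 Wild-type CHO-K1 cells (10% FBS medium) were plated overnight at 37C, exposed to compounds at 15 concentrations for 3 hr at 37C (0.76% DMSO final), and viability was read as CellTiter-Glo luminescence after 30 min at room temperature.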
# Tags describe the fitted curve by direction and shape or compound fluorescence and quenching.
# Chain of UniProt P16473 (P16473 whole entry, looked up): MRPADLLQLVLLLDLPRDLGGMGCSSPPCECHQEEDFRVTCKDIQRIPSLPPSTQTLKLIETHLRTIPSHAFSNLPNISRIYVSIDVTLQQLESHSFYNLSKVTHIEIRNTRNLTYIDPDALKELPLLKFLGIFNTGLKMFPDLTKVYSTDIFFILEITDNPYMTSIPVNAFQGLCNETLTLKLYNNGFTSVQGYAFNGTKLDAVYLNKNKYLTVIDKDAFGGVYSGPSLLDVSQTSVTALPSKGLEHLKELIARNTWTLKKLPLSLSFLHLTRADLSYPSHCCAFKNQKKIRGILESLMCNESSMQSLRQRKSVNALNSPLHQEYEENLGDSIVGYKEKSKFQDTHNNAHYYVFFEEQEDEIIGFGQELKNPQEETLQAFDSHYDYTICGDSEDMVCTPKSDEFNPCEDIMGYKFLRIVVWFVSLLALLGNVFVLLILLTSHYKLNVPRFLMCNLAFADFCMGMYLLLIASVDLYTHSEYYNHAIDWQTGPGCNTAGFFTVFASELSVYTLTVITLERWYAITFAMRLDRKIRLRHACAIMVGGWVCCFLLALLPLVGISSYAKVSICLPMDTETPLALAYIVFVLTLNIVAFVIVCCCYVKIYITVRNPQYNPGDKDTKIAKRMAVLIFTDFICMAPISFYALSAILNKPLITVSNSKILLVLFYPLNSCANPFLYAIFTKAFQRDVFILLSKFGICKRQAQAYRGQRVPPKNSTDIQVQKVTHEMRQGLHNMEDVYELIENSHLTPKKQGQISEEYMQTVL
# Chain of UniProt Q14994 (Q14994 whole entry, looked up): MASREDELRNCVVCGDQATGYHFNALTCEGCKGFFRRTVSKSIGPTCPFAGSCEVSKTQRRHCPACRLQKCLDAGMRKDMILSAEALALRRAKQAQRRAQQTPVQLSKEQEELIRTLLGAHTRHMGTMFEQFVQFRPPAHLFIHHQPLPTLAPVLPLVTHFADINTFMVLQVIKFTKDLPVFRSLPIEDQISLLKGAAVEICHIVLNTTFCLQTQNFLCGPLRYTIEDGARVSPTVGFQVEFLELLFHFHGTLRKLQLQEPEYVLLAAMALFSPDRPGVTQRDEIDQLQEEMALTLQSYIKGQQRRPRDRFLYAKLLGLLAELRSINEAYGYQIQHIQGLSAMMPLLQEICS
structure (smiles),measurement,setting,value
CC(C)CC(C)(O)C#CC(C)(O)CC(C)C (configuration not stated),Potency,[1],inconclusive: 67.2 µM [inhibitor]
same,Potency,[2],"inconclusive: 5.99 µM [falling, single point]"
same,activation,[3],inconclusive: -17.4%
same,Potency,[4],"inconclusive: 48.6 µM [inhibitor, partial curve]"
O=C(C(=O)c1ccccc1)c1ccccc1,Potency,[5],"inconclusive: 30.5 µM [activator, partial curve]"
same,Potency,[6],inactive
same,Potency,[7],"inconclusive: 56.4 µM [fluorescent, partial curve]"
O=C(O)CC(=O)O,Potency,[5],"inconclusive: 54.6 µM [activator, partial curve]"
O=C(O)c1ccccc1OP(=O)(O)O,Potency,[8],inactive
same,"activity change, positive = activation",[9],inconclusive: 0.483% [at 42.5 µM]
same,Potency,[10],inactive
CCCCCCCCCCCCCCCCCC(=O)OCC(O)CO (configuration not stated),Potency,[1],"inconclusive: 0.675 µM [inhibitor, single point]"
C[C@@H]1C[C@H]2[C@@H]3CCC4=CC(=O)C=C[C@]4(C)[C@@]3(F)[C@@H](O)C[C@]2(C)[C@@]1(O)C(=O)CO,Potency,[1],"inconclusive: 1.1 µM [inhibitor, single point]"
same,Potency,[11],"inconclusive: 12.5 µM [cytotoxic, full curve, poor fit]"
COc1ccc(Br)c(C)c1,Potency,[5],inactive
CO[C@@H]1[C@H](OC(=O)/C=C/C=C/C=C/C=C/C(=O)O)CC[C@]2(CO2)[C@H]1[C@@]1(C)O[C@@H]1CC=C(C)C,Potency,[1],"inconclusive: 0.0863 µM [inhibitor, full curve]"
same,Potency,[11],"inconclusive: 27.5 µM [cytotoxic, partial curve]"
same,Potency,[12],"inconclusive: 34.7 µM [rising, partial curve, poor fit]"
same,Potency,[10],"inconclusive: 24.5 µM [rising, full curve]"
NNC(=O)OCc1ccccc1,Potency,[5],"inconclusive: 68.6 µM [activator, partial curve, poor fit]"
c1ccsc1,Potency,[5],inactive
CCCCCOC(=O)Nc1nc(=O)n([C@@H]2O[C@H](C)[C@@H](O)[C@H]2O)cc1F,Potency,[1],inactive
same,Potency,[10],"inconclusive: 4.77 µM [rising, partial curve, poor fit]"
CCC(=O)OCc1ccc(OC)cc1,Potency,[8],inactive
same,Potency,[7],inactive
O=Cc1ccc(Cl)c(Cl)c1,Potency,[8],inactive
same,Potency,[7],"inconclusive: 103 µM [activator, partial curve, poor fit]"
same,Potency,[10],"inconclusive: 63.3 µM [cytotoxic, partial curve, poor fit]"
C[C@@H]1CC[C@H]2C(C)(C)[C@H]3C[C@@]12CC[C@@]3(C)O,Potency,[5],"inconclusive: 34.3 µM [activator, partial curve]"
same,Potency,[2],active: 54.4 µM
same,Potency,[3],active: 54.4 µM
same,Potency,[13],"inconclusive: 113 µM [cytotoxic, single point]"
C=C(C)C(=O)OCC(C)(C)COC(=O)C(=C)C,Potency,[1],inactive
same,Potency,[2],inactive
same,Potency,[10],inactive
O=Cc1ccc(F)c(Br)c1,Potency,[5],inactive
CN(C)CCN(Cc1ccccc1)c1ccccn1,Potency,[8],inactive
same,Potency,[11],"inconclusive: 12 µM [cytotoxic, partial curve, poor fit]"
same,Potency,[7],inactive
CC(C)OC(=O)c1ccccc1,Potency,[1],inactive
CN(C)c1ccc(C(=C2C=CC(=[N+](C)C)C=C2)c2ccc(N(C)C)cc2)cc1,Potency,[1],active: 27.2 µM and active: 27.3 µM and active: 13.3 µM
same,Potency,[11],"active: 19.4 µM and active: 54.9 µM and inconclusive: 26.8 µM [cytotoxic, single point]"
same,Potency,[12],inconclusive: 21.8 µM [full curve] and inconclusive: 54.9 µM and inconclusive: 26.8 µM
same,Potency,[13],active: 3.17 µM and active: 12.7 µM and active: 13.9 µM
CC(C)CCOC(=O)/C=C/c1ccccc1,Potency,[5],"inconclusive: 27.4 µM [activator, partial curve, poor fit]"
same,Potency,[7],"inconclusive: 90.1 µM [activator, partial curve, poor fit]"
O=C(O)c1cc2ccccc2cc1O,Potency,[5],"inconclusive: 54.1 µM [activator, partial curve]"
same,Potency,[12],inactive
Nc1cc(Cl)c(O)c(Cl)c1,Potency,[5],"inconclusive: 54.5 µM [activator, partial curve]"
same,activation,[3],inconclusive: -6.49%
same,Potency,[11],"inconclusive: 54.9 µM [cytotoxic, single point]"
same,Potency,[7],"inconclusive: 101 µM [falling, partial curve]"
same,Potency,[13],"inconclusive: 1.79 µM [cytotoxic, single point]"
same,Potency,[4],inactive
same,Potency,[10],"inconclusive: 15.5 µM [rising, partial curve, poor fit]"
CC(=O)[C@@]1(O)CC[C@H]2[C@@H]3C[C@H](C)C4=CC(=O)CC[C@]4(C)[C@H]3CC[C@@]21C,Potency,[5],active: 21.1 µM
same,Potency,[2],"inconclusive: 33.5 µM [falling, single point]"
same,Potency,[10],"inconclusive: 16.9 µM [cytotoxic, partial curve]"
CC(=O)c1c(C)c([N+](=O)[O-])c(C(C)(C)C)c([N+](=O)[O-])c1C,Potency,[5],inconclusive: 68.6 µM [activator]
same,Potency,[3],active: 6.11 µM
same,Potency,[12],inactive
same,Potency,[13],"inconclusive: 50.5 µM [cytotoxic, partial curve]"

# — PubChem BioAssay (Tox21)
